Laboratory results reported in article PMC4336329 (PLoS ONE, 2015).
Screen size: about 310,000 compounds; about 14,000 (4.5%) showed an effect of 50% or more. The effect is printed as a negative number. The list shows a part of the results.

Target: human ether-à-go-go-related gene (hERG) potassium channel (human, UniProt Q12809)
Test: primary screen, population patch clamp on CHO cells stably expressing hERG
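Note: peak tail current of the secondary pulse compared with the same well before compound.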

Sequence of human ether-à-go-go-related gene (hERG) potassium channel (Q12809 whole entry, looked up): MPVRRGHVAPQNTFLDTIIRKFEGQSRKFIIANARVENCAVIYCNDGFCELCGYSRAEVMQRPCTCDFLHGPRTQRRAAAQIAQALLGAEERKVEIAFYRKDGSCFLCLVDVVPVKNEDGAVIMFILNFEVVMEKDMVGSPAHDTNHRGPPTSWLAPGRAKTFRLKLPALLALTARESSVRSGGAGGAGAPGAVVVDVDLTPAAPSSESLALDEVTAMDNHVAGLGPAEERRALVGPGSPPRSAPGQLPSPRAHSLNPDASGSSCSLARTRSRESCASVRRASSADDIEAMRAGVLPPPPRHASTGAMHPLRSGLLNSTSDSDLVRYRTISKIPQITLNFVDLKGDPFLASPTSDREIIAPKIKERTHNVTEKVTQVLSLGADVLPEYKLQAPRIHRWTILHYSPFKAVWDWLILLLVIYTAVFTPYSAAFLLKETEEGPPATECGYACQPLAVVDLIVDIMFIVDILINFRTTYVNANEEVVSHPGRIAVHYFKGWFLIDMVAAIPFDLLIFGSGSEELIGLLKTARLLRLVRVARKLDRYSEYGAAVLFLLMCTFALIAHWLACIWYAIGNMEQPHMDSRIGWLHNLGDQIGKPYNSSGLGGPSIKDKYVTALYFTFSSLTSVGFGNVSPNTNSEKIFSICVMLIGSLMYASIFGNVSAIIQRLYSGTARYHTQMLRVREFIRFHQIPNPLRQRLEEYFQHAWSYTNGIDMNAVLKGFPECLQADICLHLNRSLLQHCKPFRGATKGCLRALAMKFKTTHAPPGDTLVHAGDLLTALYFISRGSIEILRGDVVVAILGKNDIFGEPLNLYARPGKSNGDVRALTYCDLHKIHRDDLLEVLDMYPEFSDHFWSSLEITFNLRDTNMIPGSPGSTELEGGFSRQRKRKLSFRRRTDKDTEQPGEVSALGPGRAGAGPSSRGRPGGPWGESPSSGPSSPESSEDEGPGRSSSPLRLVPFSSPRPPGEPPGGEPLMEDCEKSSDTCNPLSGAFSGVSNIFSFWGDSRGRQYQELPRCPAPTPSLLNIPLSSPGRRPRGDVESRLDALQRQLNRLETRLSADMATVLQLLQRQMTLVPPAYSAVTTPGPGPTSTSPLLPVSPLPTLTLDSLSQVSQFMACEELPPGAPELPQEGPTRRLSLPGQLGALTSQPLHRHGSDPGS

Compound	hERG current change (%, negative = inhibition) at 10uM [%]
Cc1ccsc1C(=O)OCC(=O)NCC1CCCO1 (centres unmarked)	-17.3
COc1ccc2oc(=O)c(/C(C)=N/Nc3nc(-c4cc(C)ccc4C)cs3)cc2c1	11.5
O=C(NN1CCOCC1)c1ccccc1	-19
Cc1onc(-c2c(Cl)cccc2Cl)c1C(=O)NCCCN1CCOCC1	3.09
CCOC(=O)c1ccc(NC(=O)C(=O)NCc2ccc(/C=C(/C#N)C(=O)NCCOC)o2)cc1	-11.4
CCn1cc(C(=O)O)c(=O)c2cc(F)c(N3CCN(C(=S)NC(=O)c4ccc(Br)cc4)CC3)cc21	20.5
N/C(Cn1cncn1)=N\OC(=O)c1ccc(Cl)cc1	-2.86
CCC(C)c1ccccc1N1CC(C(=O)N2CCN(S(=O)(=O)c3ccc(F)cc3)CC2)CC1=O (centres unmarked)	-29.3
O=C1c2sc3nc4ccccc4n3c2C(=O)N1c1ccccc1Cl	11.1
COc1ccc(S(=O)(=O)Nc2ccc3c(c2)OCO3)cc1C(=O)O	2.09
Cn1c(COc2ccccc2)nnc1SCc1nc2ccccc2[nH]1	-9.92
CC1=C(C(=O)Nc2ccccc2)C(c2ccc(C)o2)n2c(s/c(=C/c3ccccc3)c2=O)=N1 (centres unmarked)	18.1
CCOc1ccc(NC(=O)Nc2ccc3c(c2)nnn3C)cc1	2.92
CC(=O)N/C(=C\c1ccccc1)C(=O)OCC(=O)Nc1cc(S(=O)(=O)N(C)C)ccc1C	3.45
CN(C(=O)CCN1C(=O)c2ccccc2C1=O)c1ccccc1	17.7
O=C(Nc1ccc(C(=O)O)cc1)/C(=C\c1ccc2c(c1)OCO2)NC(=O)c1ccccc1	22
CCCN(CC(=O)Nc1c(C)cccc1CC)C(=O)SCC	10
NC(=O)CC(NC(=O)Cc1cccc2ccccc12)c1ccc(N2CCc3ccccc3C2)c([N+](=O)[O-])c1 (centres unmarked)	2.15
COc1ccccc1C(=O)N1CCCC(c2nc(-c3cc(OC)c(OC)c(OC)c3)no2)C1 (centres unmarked)	-10.6
Cc1cccc(CCNC(=O)C2CCCN(c3cnccn3)C2)c1 (centres unmarked)	-11.5
O=C1C2CC=CCC2C(=O)N1CC(=O)N(Cc1ccccc1)C1CCS(=O)(=O)C1 (centres unmarked)	-15.7
CCOC(=O)Cn1c(=O)cnc2ccccc21	7.24
O=C1CNC(=S)N1Cc1cccc(Cl)c1	7.56

Compound	hERG current change (%, negative = inhibition) at 10uM [%]
Cc1ccc(NC(=O)C(=O)NCC2OCCc3ccccc32)cc1 (centres unmarked)	-0.0425
Cc1cc(C=O)c(C)n1-c1ccc(N2CCCC2)c([N+](=O)[O-])c1	-13.3
CNC(=O)c1ccsc1NC(=O)c1ccc(Cl)s1	-0.512
NC(=O)C(c1ccccc1)c1ccc(C(=O)c2ccccc2)cc1 (centres unmarked)	3.08
Cc1nc(CNC(=O)C2CCC(=O)N(Cc3cccc(F)c3)C2)sc1C (centres unmarked)	5.68
COc1cc(NC(=O)Nc2ccc3c(c2)OCO3)cc(OC)c1OC	31.4
Nc1nc(Cl)cc(N2CCOCC2)n1	14.1
COc1ccccc1CNC(=O)CN(c1ccc(C)cc1)S(=O)(=O)c1c(C)noc1C	-13.9
COCCCn1c(=O)c2sccc2n(Cc2ccccc2C)c1=O	0.966
Cc1ccc(SCCC(=O)N2CCC(C)CC2)cc1	-0.73
CCN(CC)c1ccc(CNc2nc3ccccc3n2C(C)C)cc1	1.88
CCOCCn1c2ccccc2c2nc3ccccc3nc21	-7.31
Cc1nn(-c2cccc(Cl)c2)c2nc(-c3ccncc3)cc(C(=O)N3CCOCC3)c12	-62.3
CCc1ccc2oc(-c3ccc(NC(C)=O)cc3)nc2c1	10.7
COc1ccccc1C(=O)Nc1ccc(C(=O)N2CCCC2)cc1	-5.55
O=C(O)c1ccccc1-c1ccccc1C(=O)NCc1cccc(C(F)(F)F)c1	-0.514
C/C=C/C(=O)OCC(=O)Nc1cccc(Br)c1	25.9
COC(=O)Cc1c(O)ccn(CCc2ccc(S(N)(=O)=O)cc2)c1=O	10.3
CCOC(=O)C1(O)CSc2nc3sc(C(=O)O)c(C)c3c(=O)n21 (centres unmarked)	12.6
Cl.Clc1ccc(Cn2c(CN3CCCC3)nc3ccccc32)cc1	-74.4
Cc1cccc(C)c1NC(=O)CN(C)C(=O)c1cccc(S(=O)(=O)N2CCN(c3ccccc3)CC2)c1	-14.3
CCCCn1c(O)c(/C=N/N2CCOCC2)c(=O)[nH]c1=S	1.15
O=C(NCCOc1ccccc1)C1CCC(=O)N(Cc2ccc(Cl)cc2)C1 (centres unmarked)	-31.2

Compound	hERG current change (%, negative = inhibition) at 10uM [%]
COc1ccc(OC)c(/C=N/NC(=O)c2ccc(=O)[nH]n2)c1	14.6
Cc1c(NC(=O)c2cc(-c3ccccc3O)on2)c(=O)n(-c2ccccc2)n1C	3.5
Fc1ccc(-c2nnc(CSc3nnc(-c4cccs4)o3)o2)cc1	-11.4
O=S(=O)(c1cc(F)ccc1F)N1CCN(c2ncccn2)CC1	-19
C=CCNC(=O)C(=O)NCC1CCCN1CC (centres unmarked)	4.08
CC(=O)c1cnn(-c2ccccc2)c1C	19.8
COc1cc(C)c(NC(=O)C(=S)N2CCCC2)cc1C	13
CC1C(=O)C(C)(C)C(=O)OC1c1ccccc1 (centres unmarked)	10.6
Cc1ccc(C(=O)Oc2oc(-c3ccccc3)nc2C=Nc2ccc(N(C)C)cc2)cc1	14.5
CC(CN1CCCCC1)OC(=O)c1cc2ccccc2o1.Cl (centres unmarked)	5.66
O=C(c1ccccc1)N1CCN(c2ccccc2F)CC1	10.1
Fc1ccc(N2CCN(c3nc(-c4ccco4)cc(C(F)(F)F)n3)CC2)cc1	15.2
O=C(C(Cc1ccccc1)N1C(=O)C2C3CCC(C3)C2C1=O)N1CCCCC1 (centres unmarked)	3.51
CNC(=S)NNC(=O)c1sccc1OCc1ccc(Cl)cc1Cl	7.37
O=C1[C@H]2[C@@H](c3ccc(Cl)cc3)N3C(=O)N(c4cccc(Br)c4)C(=O)[C@@]3(Cc3ccc(Cl)cc3)[C@H]2C(=O)N1C1CCCCC1	-3.71
C/C(=N\NC(=O)c1sccc1C)c1ccncc1	10.8
CC(=O)c1cccc(NC(=O)C2CCCC2)c1	1
Cc1ccc(CNC(=O)C2CCCN2C(=O)NCc2ccccc2)cc1 (centres unmarked)	-31.9
CCOC(=O)c1cc(NC(=O)Nc2ccccc2OC)c(C)nc1C	-11.4
Cc1cccc(OCCCn2c(=O)sc3ccccc32)c1	-0.333
O=C(COC(=O)c1ccc(Br)o1)Nc1ccc(S(=O)(=O)N2CCCC2)cc1	-7.8
O=C(NCc1cccs1)C(=O)c1cn(CC(=O)N2CCCC2)c2ccccc12	13.8
O=C(c1cccc([N+](=O)[O-])c1)N1CCCN(C(=O)c2cccc([N+](=O)[O-])c2)CC1	-42

Compound	hERG current change (%, negative = inhibition) at 10uM [%]
COc1cc(CCC(=O)Nc2sccc2C#N)cc(OC)c1OC	21.2
CCOc1cc(C2Nc3ccccc3C(=O)N2c2ccccc2)c(Br)cc1OCC(=O)O (centres unmarked)	-53.8
O=C(CSCc1ccc(Br)cc1)NC1CC1	19.6
CCC(C)NC(=O)c1cc2c(=O)n3ccccc3nc2s1 (centres unmarked)	-7.34
O=C(/C=C/c1ccc2c(c1)OCO2)NCC1CCCO1 (centres unmarked)	18.4
Cc1ccc(N(CC(=O)NC(C)(C)C)C(=O)CNC(=O)c2cccs2)cc1C	10.9
O=C1CCCc2c1nc(-c1ccccc1F)n2O	3.86
O=C(COc1ccc([N+](=O)[O-])cc1)Nc1cc(C(=O)O)cc(C(=O)O)c1	27.1
Cc1ccc2c(COC(=O)C34CC5CC(CC(C5)C3)C4)cc(=O)oc2c1	-37
O=C(c1ccc(NC2=NC3CS(=O)(=O)CC3S2)cc1)N(CCO)Cc1ccccc1 (centres unmarked)	21.7
COc1ccccc1CNC(=O)C(C)n1nc(C)c2c(C)n(-c3ccccc3)nc2c1=O (centres unmarked)	-0.0415
CCN(CC)c1ccc(C=C2C(=O)OC3(CCCCC3)OC2=O)cc1	7.76
CN(C)CC1(c2ccccc2)CCCC1.Cl	-5.91
Cc1ccc(SCCC(=O)NCc2ccco2)cc1	-3.96
NC(=O)c1ccc(NC(=O)COC(=O)c2c3c(nc4ccccc24)/C(=C\c2cccs2)CCC3)cc1	3.34
CCCn1c(N)c(C(=O)COC(=O)c2cccc(S(=O)(=O)N3CCOCC3)c2)c(=O)[nH]c1=O	1.95
Cc1oc(-c2cccs2)nc1CS(=O)CC(=O)NC1CCCCCC1 (centres unmarked)	5.08
N#Cc1cc(O)c(-n2nnc3ccccc32)cc1C#N	13.9
Cc1ccc(C(=O)NNC(=O)c2n[nH]c(=O)c3ccccc23)cc1C	-5.8
COC(=O)CCCNC(=O)CC1C(=O)NCCN1Cc1ccoc1 (centres unmarked)	22.1
